In the supplement of paper PMC10126150 one finds switch fluorescence ratio data, which are given here for 67 sequences.

In this data set the test system is ATP. Description: switch fluorescence ratio, 500 uM ATP over buffer (Cy3 cluster intensity, sum of 5 cycles each) (fold (ratio)); higher = stronger signal-on switching upon ATP binding; sequences stand for … in TCGTCGGCAGCGTCAGATGTGTATAAGAGACAGTTTTTTTTTTTTTTTTTTTTTTTTT…TC. As to conditions: aptamer strand: ATP DNA aptamer (quencher-CACCTGGGGGAGTATTGCGGAGGAAGG + anchor), 100 nM annealed; ATP concentration: 500 uM; one replicate. Put shortly:
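Five buffer/ATP imaging cycles were run on Cy3-labelled switching-strand clusters on a modified Illumina MiSeq flow-cell, with NaOH stripping and re-annealing between cycles. In each cycle, clusters annealed to 100 nM quencher-labelled ATP aptamer were imaged in selection buffer, then after 15 min with 500 uM ATP at 22 °C. Per cluster, the fluorescence ratio is summed target-cycle over summed buffer-cycle Cy3 intensity, averaged per switch-domain sequence. Only clusters within 100-1000 RFU were kept.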

Values marked as one replicate rest on one cluster of the flow cell; about a third of the high ones do not repeat.
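Note: ATP exposure 15 min at 22 °C before imaging.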

Turning to CGACACATTA, the switch fluorescence ratio worked out at 1.63.

As for CCAATTAAG, the switch fluorescence ratio is 1.01.

For the sequence ATTGAGGTCA, the switch fluorescence ratio was determined as 1.01.

As for TTTATGTGG, the switch fluorescence ratio was 0.999.

As to ACAAAGGACT, the switch fluorescence ratio came out at 0.994.

In the case of GTAGTTTG, the switch fluorescence ratio stood at 0.978.

As to GGTTATTGAT, the switch fluorescence ratio amounted to 0.995.

For the sequence CCTGTCGCTT, the switch fluorescence ratio was determined as 2.17.

Turning to AGCCATTCG, the switch fluorescence ratio came out at 0.935.

For the sequence ACATGGTACC, the switch fluorescence ratio was determined as 1.07.

For the sequence ACGGACCGGG, the switch fluorescence ratio was determined as 1.17.

Take GTGTGTATTT: the switch fluorescence ratio turned out to be 0.994.

For GCCGGGACAC, the switch fluorescence ratio stood at 1.14.

Regarding GCAGGACGTG, the switch fluorescence ratio was 1.03.

In the case of ACTAGGTACT, the switch fluorescence ratio was determined as 1.05.

Take GACTTACTGA: the switch fluorescence ratio is 1.15.

Consider CTTGCTAATT, for which the switch fluorescence ratio amounted to 1.01.

With TTCTTTCCTC, the switch fluorescence ratio was 1.01.

With TCGGCTCGTT, the switch fluorescence ratio came to 1.

With ATCTCTAATG, the switch fluorescence ratio turned out to be 0.943.

In the case of GCACGGGCGC, the switch fluorescence ratio was 1.07.

Regarding CTTGCCTGGT, the switch fluorescence ratio was determined as 1.

AGTATCGGTC: the switch fluorescence ratio worked out at 0.982.

With AGGCATTTTT, the switch fluorescence ratio stood at 0.959.

On to AGGCCCGTAC, for which the switch fluorescence ratio is 1.06.

As for CGCAATAAAT, the switch fluorescence ratio is 5.04.

With CTAGTAGGCG, the switch fluorescence ratio amounted to 0.964.

Consider TGAAAATATA, for which the switch fluorescence ratio turned out to be 0.976.

For ACTGTTGCCG, the switch fluorescence ratio was 1.09.

Consider CTATCTCCAG, for which the switch fluorescence ratio is 1.04.

As to CGCCGTTGTA, the switch fluorescence ratio stood at 1.01.

For ATAAACTTG, the switch fluorescence ratio came to 1.06.

Regarding CAAGACGTAT, the switch fluorescence ratio is 1.01.

With AATATCCGGG, the switch fluorescence ratio amounted to 1.01.

CTCGGGCGGC: the switch fluorescence ratio stood at 0.941.

Take AGGCATTCCC: the switch fluorescence ratio amounted to 1.06.

As for TTCGACTGAA, the switch fluorescence ratio amounted to 1.03.

TCGATCGCCG: the switch fluorescence ratio was 0.946.

TATCTGGCT: the switch fluorescence ratio turned out to be 1.03.

As to GCTAGAGACA, the switch fluorescence ratio was 1.05.

For GAACCGAGCA, the switch fluorescence ratio was 1.36.

On to TTCTGCGGGT, for which the switch fluorescence ratio is 1.06.

For TGTGCGTATC, the switch fluorescence ratio turned out to be 1.02.

TTGTTATG: the switch fluorescence ratio turned out to be 0.988.

Regarding CAGTTATAGA, the switch fluorescence ratio was determined as 1.02.

On to ACTTTAGGAT, for which the switch fluorescence ratio was 1.02.

Regarding AGTCAGGTTG, the switch fluorescence ratio stood at 0.986.

With GGATATGTTT, the switch fluorescence ratio came out at 1.04.

Take TACAACGAGG: the switch fluorescence ratio is 1.02.

As for AGTGGGTTAA, the switch fluorescence ratio was 1.05.

Turning to AGACAGTGT, the switch fluorescence ratio was 0.99.

On to GCTACGTCGT, for which the switch fluorescence ratio was 0.966.

In the case of TGAGTCTTTG, the switch fluorescence ratio worked out at 1.05.

As for TCGAGTGCAT, the switch fluorescence ratio amounted to 1.06.

CGATGTATTC: the switch fluorescence ratio is 1.1.

For TAGGATCTTT, the switch fluorescence ratio came out at 1.

In the case of TTTGATGCGC, the switch fluorescence ratio amounted to 0.968.

On to GACAGTGCA, for which the switch fluorescence ratio worked out at 1.06.

For CCTTTTCTGT, the switch fluorescence ratio was 0.964.

AGTTCTGATC: the switch fluorescence ratio stood at 0.932.

ATGCTGCATG: the switch fluorescence ratio turned out to be 0.964.

With AGTATTATGA, the switch fluorescence ratio worked out at 1.02.

On to CTTCAAATAT, for which the switch fluorescence ratio is 1.04.

Consider GATGTTCTTT, for which the switch fluorescence ratio was determined as 0.978.

As for TTTAGCAAGA, the switch fluorescence ratio is 1.43.

Regarding TCGCTTCGGG, the switch fluorescence ratio was determined as 0.979.

Turning to GGGGTGTGGA, the switch fluorescence ratio is 1.01.
